# Assay results: PubChem BioAssay AID488969 (Vanderbilt High Throughput Screening Facility, 2010)
# Whole data set: some 110,000 compounds, median “z-score” near -0.1, cut for the highest 2% near 2. Some of the results follow.
# Biological target: Metabotropic glutamate receptor 8 (Rattus norvegicus) (UniProt P70579)
# Experiment: mGluR8 Gi/Go-coupled signaling modulation – cell-based, rat, thallium flux, HTS, primary screen (AID 488969)
# Conditions: HEK293 rat mGluR8, GIRK (G protein-gated inwardly rectifying potassium channel) thallium flux, FluoZin2; at 10 µM; stronger effect = higher value; submaximal glutamate (EC20) added with thallium
# UniProt P70579, sequence (P70579 whole entry, looked up): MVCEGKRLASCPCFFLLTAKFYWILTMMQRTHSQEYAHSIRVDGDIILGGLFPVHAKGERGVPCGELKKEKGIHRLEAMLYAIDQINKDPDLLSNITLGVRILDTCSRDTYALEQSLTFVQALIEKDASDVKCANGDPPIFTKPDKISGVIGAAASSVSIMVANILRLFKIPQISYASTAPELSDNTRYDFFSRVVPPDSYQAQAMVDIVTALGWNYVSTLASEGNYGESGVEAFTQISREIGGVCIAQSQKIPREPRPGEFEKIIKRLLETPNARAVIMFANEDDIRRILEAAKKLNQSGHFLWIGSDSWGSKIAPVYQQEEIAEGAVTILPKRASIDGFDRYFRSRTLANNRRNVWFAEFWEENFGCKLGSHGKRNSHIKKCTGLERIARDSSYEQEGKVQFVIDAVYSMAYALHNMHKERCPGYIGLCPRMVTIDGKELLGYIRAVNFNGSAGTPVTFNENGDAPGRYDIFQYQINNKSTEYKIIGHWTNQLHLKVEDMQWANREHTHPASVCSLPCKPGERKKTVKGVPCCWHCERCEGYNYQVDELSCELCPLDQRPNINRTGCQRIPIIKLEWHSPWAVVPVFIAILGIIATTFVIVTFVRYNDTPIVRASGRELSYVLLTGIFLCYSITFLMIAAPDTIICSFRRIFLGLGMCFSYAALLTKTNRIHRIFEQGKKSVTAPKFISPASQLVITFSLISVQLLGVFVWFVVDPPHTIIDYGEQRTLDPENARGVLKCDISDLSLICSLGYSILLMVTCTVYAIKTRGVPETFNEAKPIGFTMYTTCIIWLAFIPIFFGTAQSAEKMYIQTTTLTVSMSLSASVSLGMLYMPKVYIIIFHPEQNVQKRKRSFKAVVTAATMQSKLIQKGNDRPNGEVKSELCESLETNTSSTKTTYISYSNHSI
row,Structure (SMILES),z-score
1,Cn1c(=O)c2c(nc(OC/C=C/c3ccccc3)n2C)n(C)c1=O,-0.629
2,COc1ccc(OCCC(=O)OCC(=O)NC(=O)NC(C)C)cc1,-0.131
3,O=C1SCC(c2ccccc2)=NN1Cc1ccccc1,-0.235
4,CC(C)(C)NC(=O)NC(=O)CSc1ncc(C(F)(F)F)cc1Cl,-0.0657
5,CCCSc1nc(-n2ncc(C#N)c2N)c2c3c(sc2n1)CCC(C)C3 (centres undefined),-0.285
6,COc1ccc(C(=O)N(CCCO)Cc2cc3c(C)ccc(C)c3[nH]c2=O)cc1OC,0.0645
7,CSc1cccc(NC(=O)CN(c2cc(C)ccc2C)S(C)(=O)=O)c1,1.11
8,CC1=NN(c2nc(-c3ccc(F)cc3)cs2)C(=O)C1,0.0382
9,O=C(CCC1CCCCC1)NNC(=O)NC12CC3CC(CC(C3)C1)C2,0.138
10,O=C(Oc1ccc(N(Cc2cccs2)C2=NS(=O)(=O)c3ccccc32)cc1)c1ccc(Cl)cc1,-0.103
11,O=C1CN(C(=O)c2cc([N+](=O)[O-])ccc2Cl)C(c2ccccc2)c2cc(F)ccc2N1 (centres undefined),-0.548
12,O=[N+]([O-])c1cccc(S(=O)(=O)N2CCCC2)c1,-0.0414
13,O=C(CSc1nc2ccccc2[nH]1)N1c2ccccc2Sc2ccccc21,-0.394
14,CC(C)(C)NC(=O)C(c1ccc(F)cc1)N(Cc1ccco1)C(=O)Cn1nnc(-c2cccs2)n1 (centres undefined),-0.585
15,Cc1ccccc1NS(=O)(=O)c1ccc(OCC(=O)NCc2cccnc2)cc1,-0.241
16,Cc1csc(NC(=O)c2ccccc2[N+](=O)[O-])n1,0.963
17,COc1ccc2c(c1)CCN=C2Cc1ccc(OC)c(OC)c1,-0.0417
18,CCCCCCCCCCn1cc(C(C)=O)c(=O)[nH]c1=O,-0.201
19,CC(C)N1C(=O)C2C(C(=O)NC3CCCCC3)C3C=CC2(O3)C1C(=O)NC1CCCCC1 (centres undefined),0.882
20,COc1cc(/C=C2/SC(=O)N(Cc3ccccc3Cl)C2=O)ccc1OCc1ccncc1,-0.0596
21,CCOC(=O)c1c(-c2ccccc2)csc1NC(=O)CCN1C(=O)c2ccccc2C1=O,-0.51
22,O=C(O)c1cc(N/N=C/c2ccc3c(c2)OCCO3)ccc1Cl,-0.137
23,O=C(Cc1ccccc1)NCCSCc1ccc(Cl)cc1,-0.37
24,CCn1cc(C(=O)NCc2ccco2)c(=O)c2cc(S(=O)(=O)N3CCCCCC3)ccc21,-0.541
25,COc1cc(CN2CCN(C(=O)CC(C)C)CC2)cc(OC)c1OC,-0.0906
26,COC(=O)c1c(-c2cccc3ccccc23)csc1NC(=O)Cc1ccc(OC)c(OC)c1,0.114
27,COc1ccc(N2C(=O)CSC23C(=O)Nc2ccccc23)cc1 (centres undefined),-0.395
28,c1ccc(CN(Cc2cccs2)C(c2cccs2)c2nnnn2C2CCCC2)cc1 (centres undefined),-0.0121
29,CCOc1ccc(CC2CCC(=O)NC2=O)cc1 (centres undefined),-0.138
